From the GPR68 mutational scans of Howard et al. (2025)

B1: GPR68, Q15743 (parent)
chain: MGNITADNSSMSCTIDHTIHQTLAPVVYVTVLVVGFPANCLSLYFGYLQIKARNELGVYLCNLTVADLFYICSLPFWLQYVLQHDNWSHGDLSCQVCGILLYENIYISVGFLCCISVDRYLAVAHPFRFHQFRTLKAAVGVSVVIWAKELLTSIYFLMHEEVIEDENQHRVCFEHYPIQAWQRAINYYRFLVGFLFPICLLLASYQGILRAVRRSHGTQKSRKDQIQRLVLSTVVIFLACFLPYHVLLLVRSVWEASCDFAKGVFNAYHFSLLLTSFNCVADPVLYCFVSETTHRDLARLRGACLAFLTCSRTGRAREAYPLGAPEASGKSGAQGEEPELLTKLHPAFQTPNSPGSGGFPTGRLA

What was measured:
[1] = variants of: B1; test: cAMP reporter score (Enrich2 score, wild type = 0); higher = more signal; HEK293T, FACS bins
[2] = variants of: B1; test: surface expression score (Enrich2 score, wild type = 0); higher = more signal; HEK293T, FACS bins

Variant | cAMP reporter score ([1]; pH 5.5) | cAMP reporter score ([1]; pH 6) | cAMP reporter score ([1]; pH 6, modulator: ogerin) | cAMP reporter score ([1]; pH 6.5, modulator: ogerin) | surface expression score [2]
MGNITADNSSMSCTIDHTIHQTLAPVVYVTVLVVGFPANCLSLYFGYLQIKARNELGVYLCNLTVADLFYICSLPFWLQYVLQHDNWSHGDLSCQVCGILLYENIYISVGFLCCISVDRYLAVAHPFRFHQFRTLKAAVGVSVVIWAKELLTSIYFLMHEEVIEDENQHRVPFEHYPIQAWQRAINYYRFLVGFLFPICLLLASYQGILRAVRRSHGTQKSRKDQIQRLVLSTVVIFLACFLPYHVLLLVRSVWEASCDFAKGVFNAYHFSLLLTSFNCVADPVLYCFVSETTHRDLARLRGACLAFLTCSRTGRAREAYPLGAPEASGKSGAQGEEPELLTKLHPAFQTPNSPGSGGFPTGRLA [C172P] | -2 | -1.07 | -1.29 | -1.52 | -0.789
MGNITADNSSMSCTIDHTIHQTLAPVVYVTVLVVGFPANCLSLYFGYLQIKARNELGVYLCNLTVADLFYICSLPFWLQYVLQHDNWSHGDLSCQVCGILLYENIYISVGFLCCISVDRYLAVAHPFRFHQFRTLKAAVGVSVVIWAKELLTSIYFLMHEEVIEDENQHRVQFEHYPIQAWQRAINYYRFLVGFLFPICLLLASYQGILRAVRRSHGTQKSRKDQIQRLVLSTVVIFLACFLPYHVLLLVRSVWEASCDFAKGVFNAYHFSLLLTSFNCVADPVLYCFVSETTHRDLARLRGACLAFLTCSRTGRAREAYPLGAPEASGKSGAQGEEPELLTKLHPAFQTPNSPGSGGFPTGRLA [C172Q] | -1.84 | -1.24 | -1.95 | -1.36 | -0.92
MGNITADNSSMSCTIDHTIHQTLAPVVYVTVLVVGFPANCLSLYFGYLQIKARNELGVYLCNLTVADLFYICSLPFWLQYVLQHDNWSHGDLSCQVCGILLYENIYISVGFLCCISVDRYLAVAHPFRFHQFRTLKAAVGVSVVIWAKELLTSIYFLMHEEVIEDENQHRVSFEHYPIQAWQRAINYYRFLVGFLFPICLLLASYQGILRAVRRSHGTQKSRKDQIQRLVLSTVVIFLACFLPYHVLLLVRSVWEASCDFAKGVFNAYHFSLLLTSFNCVADPVLYCFVSETTHRDLARLRGACLAFLTCSRTGRAREAYPLGAPEASGKSGAQGEEPELLTKLHPAFQTPNSPGSGGFPTGRLA [C172S] | -0.469 | – | 0.14 | -0.512 | -0.186
MGNITADNSSMSCTIDHTIHQTLAPVVYVTVLVVGFPANCLSLYFGYLQIKARNELGVYLCNLTVADLFYICSLPFWLQYVLQHDNWSHGDLSCQVCGILLYENIYISVGFLCCISVDRYLAVAHPFRFHQFRTLKAAVGVSVVIWAKELLTSIYFLMHEEVIEDENQHRVRFEHYPIQAWQRAINYYRFLVGFLFPICLLLASYQGILRAVRRSHGTQKSRKDQIQRLVLSTVVIFLACFLPYHVLLLVRSVWEASCDFAKGVFNAYHFSLLLTSFNCVADPVLYCFVSETTHRDLARLRGACLAFLTCSRTGRAREAYPLGAPEASGKSGAQGEEPELLTKLHPAFQTPNSPGSGGFPTGRLA [C172R] | -1.24 | -1.16 | -1.46 | -1.52 | -2.46

Scores whose standard error is large were omitted. Two further conditions of the source, in which the scores hardly spread, are not listed. Names with del lack the residues named; names with ins carry added residues between the positions named. For some of these results: The concentration of ogerin is not given here.
